Measured values as given in PubChem BioAssay AID624296 (National Center for Advancing Translational Sciences (NCATS), 2012).
Where “and” joins values, the source holds several entries; their conditions need not be identical. Equal entries are not always repeated. Screen size: about 350,000 compounds; about 9,900 (2.8%) were called active. This list was built around the results that the source calls inconclusive (neither active nor inactive); the mix of calls is not that of the screen. The call rests on the fitted dose curve; in most records, active means well fitted activation curve with a large enough effect; inconclusive means small, poorly fitted or top-dose-only effect; inactive means no such curve, though single readings can be large or run the other way. A potency beside an inconclusive call is a rough fit, not a confirmed value.

Test: A quantitative high throughput screen for small molecules that induce DNA re-replication in MCF 10a normal breast cells. Further: nearly all actives have a fitted effect of over 50% in size. On activity, positive = re-replication: % of control where 0% means no effect.
Settings: MCF 10A DNA re-replication, Hoechst nuclear intensity, 48 h; activity, positive = re-replication: at 46.1 µM (top of the series)
Potency means the concentration at half of the fitted maximal effect; tags describe the fitted curve by direction and shape.

Structure (SMILES)	activity, positive = re-replication	Potency
COc1ccc(C(=O)C2CCCN(Cc3cccc(C)n3)C2)c(OC)c1 (stereo unspecified)	inactive: -15.9%	–
COc1ccc(Cc2nccc3cc(OC)c(OC)cc23)cc1OC	–	inconclusive: 6.51 µM [activator, partial curve, poor fit] and inconclusive: 10.3 µM [activator, partial curve, poor fit]
COc1ccc(-c2ccc3n2Cc2cnnn2-c2ccccc2-3)cc1	–	inconclusive: 29.1 µM [activator, single point]
COc1ccc(C=O)cc1	inactive: 9.83%	–
C[C@]12CCC(=O)C=C1CCC1C2CC[C@@]2(C)C1CC[C@@H]2O (stereo partly specified)	inactive: 4.79%	–
CN(C)CC1CCCCC1=O (stereo unspecified)	–	inconclusive: 1.46 µM [activator, partial curve, poor fit]
CC1OC(OC2C(O)CC(OC3C(O)CC(OC4CCC5(C)C(CCC6C5CCC5(C)C(C7=CC(=O)OC7)C(O)CC65O)C4)OC3C)OC2C)CC(O)C1O (stereo unspecified)	–	inconclusive: 0.461 µM [activator, full curve, poor fit]
COc1cccc(CNC(=O)CCC(=O)N2C[C@H]3C[C@H](C2)c2cccc(=O)n2C3)c1OC	–	inconclusive: 1.46 µM [activator, full curve, poor fit]
CN1/C(=C\C=C2C(=O)NC(=S)NC2=O)C(C)(C)c2ccccc21	inactive: 9.41%	–
CCN(CCNc1ccc([N+](=O)[O-])c2cccnc12)S(=O)(=O)c1ccccc1	inactive: 10.4%	–
CC1CCC2[C@@H](C)C(=O)OC3O[C@]4(C)CCC1C32OO4 (stereo partly specified)	inactive: 9.83%	–
O=C(N/N=C/c1c(O)n(CCC2=CCCCC2)c(=S)[nH]c1=O)c1ccccc1	–	inconclusive: 25.9 µM [activator, single point]
CCCc1nc2ccc(Br)cc2c(=O)n1-c1ccc([N+](=O)[O-])c(C(F)(F)F)c1	–	inconclusive: 18.4 µM [activator, single point]
Fc1ccc(CNCCc2ccccc2)cc1	inactive: 0.0223%	–
COc1ccc(-c2noc(=O)n2Cc2cc(C)ccc2C)cc1	–	active: 16.4 µM
O=c1[nH]c(O)c(/C=C2\C=Nc3ccc(OCc4ccccc4)cc32)c(=O)[nH]1	–	inconclusive: 5.8 µM [activator, full curve]
COc1cc(CN2CC3CC(C2)c2cccc(=O)n2C3)cc(OC)c1OC (stereo unspecified)	–	active: 25.9 µM
N#CC1=C(N)Oc2c(c(=O)oc3ccccc23)C1c1ccc([N+](=O)[O-])o1 (stereo unspecified)	–	inconclusive: 29.1 µM [activator, single point]
COc1ccccc1CCNC1CCC(C(C)(C)C)CC1 (stereo unspecified)	–	inconclusive: 20.6 µM [activator, partial curve, poor fit]
O=c1c2ccccc2nc(C[n+]2ccccc2)n1-c1cccc(C(F)(F)F)c1	inactive: 0%	–
O=c1c2ccccc2nc(N2CCCC2)n1-c1ccc(Cl)cc1	–	inconclusive: 8.2 µM [activator, partial curve, poor fit]
COc1cc(C(=O)OC2C[C@H]3CC[C@@H](C2)N3C)ccc1O (stereo partly specified)	–	inconclusive: 23.1 µM [activator, single point]
CCN1/C(=C\C=C\C2=[N+](CC)c3ccccc3C2(C)C)C(C)(C)c2ccccc21	–	inconclusive: 32.6 µM [activator, single point]

Structure (SMILES)	activity, positive = re-replication	Potency
N=C1c2ccccc2CN1NC(=O)c1ccc(F)cc1	inactive: -3.71%	–
O=C(N/N=C/C1C(=O)NC(=S)N(c2ccccc2)C1=O)c1cc(Br)c(O)c(Br)c1 (stereo unspecified)	–	inconclusive: 29.1 µM [activator, single point]
CC1CCC(C(C)C)C(OC(=O)Cn2c(COc3ccccc3)[n+](C)c3ccccc32)C1 (stereo unspecified)	–	inconclusive: 29.1 µM [activator, single point]
CNCCc1c[nH]c2ccc(O)cc12	–	inconclusive: 29.1 µM [activator, single point]
Cc1cc(OC(=O)N(C)C)n(-c2ccccc2)n1	–	inconclusive: 6.51 µM [activator, single point]
CN(C)C(=O)Oc1ccc(Br)cc1C(=O)Nc1ccc(F)c(Cl)c1	–	inconclusive: 16.4 µM [activator, single point]
O=C1NC(=O)N(Cc2ccc(F)cc2)C(=O)/C1=C\c1ccc([N+](=O)[O-])s1	–	inconclusive: 29.1 µM [activator, single point]
CCn1c(=N)n(Cc2ccccc2F)c2ccccc21	inactive: 1.49%	–
O=C(c1ccc(-c2ccccc2)c(F)c1)C1CCCN(CCO)C1 (stereo unspecified)	–	inconclusive: 20 µM [activator, single point]
O=C1C2CCN(CC2)[C@@H]1Cc1ccc2ccccc2c1O	–	inconclusive: 0.103 µM [activator, full curve, poor fit]
COc1ccc(-n2c(Cc3cccc([N+](=O)[O-])c3)nc3ccccc3c2=O)cc1	inactive: 1.01%	–
COc1ccc(Cn2c(N)c(C(=O)NCc3ccco3)c3nc4ccccc4nc32)cc1OC	–	inconclusive: 1.3 µM [activator, full curve, poor fit]
COC(=O)[C@@H](N)CCCN=C(N)N[N+](=O)[O-]	–	inconclusive: 0.146 µM [activator, full curve, poor fit]
CCC1(C)OC(c2ccccc2)=C/C(=C/C=C2C(=O)NC(=O)NC2=O)O1 (stereo unspecified)	–	active: 20.6 µM
CC1(C)CC(=O)c2cc(OCC(=O)N3CCN(Cc4ccccc4)CC3)ccc2O1	inactive: -2.37%	–
CCOC(=O)C1(c2ccccc2)CCN(CCC(=O)Nc2ccc(C(=O)OC)cc2)CC1	–	inconclusive: 29.1 µM [activator, single point]
C=CCN(CC=C)Cc1c[nH]c2ccccc12	inactive: 2.94%	–
Cc1cc(N2CCCC2)ccc1C=C(C#N)C#N	inactive: 0.481%	–
CCN(CCO)c1ccc(N=Cc2c(O)n(C)c(=S)[nH]c2=O)cc1	–	inconclusive: 29.1 µM [activator, partial curve, poor fit]
C1=NCCc2c1[nH]c1ccccc21	–	active: 16.4 µM
CCCCCCCn1c(=O)c(C(=O)Nc2cnccn2)c(O)c2ccccc21	–	active: 3.66 µM
CN(C)CC1CSCCC1(O)c1ccccc1Cl (stereo unspecified)	inactive: 0.036%	–
COC(=O)C1=C(c2ccc3ccccc3c2)C[C@@H]2CC[C@H]1N2C(=O)N1CCCCC1	–	inconclusive: 13 µM [activator, single point]
